Assay results as given in PubChem BioAssay AID1259407 (Chemical Carcinogenesis Research Information System (CCRIS), 2018).
Entries after “also recorded” stand apart in the source; their conditions may differ. For part of its entries the source gives two or more results. This list holds those alone. No rule for the calls is given here. There may be further records. Results that share an entry do not match, cause unknown; dose, time, organism, isomer or construct need not be as stated for each record. A tag in brackets gives the origin of a value. Letters count within one entry. Marks such as (2×) count equal records among those shown.

Tested on: CCRIS mutagenicity, Ames/micronucleus/aberration tests
Test: CCRIS mutagenicity studies
[1] = Test System: MOUSE LYMPHOMA, Strain/Indicator: L5178Y (TK+/TK-), Metabolic Activation: NONE, Method: SUSPENSION/PLATE
[2] = End Point: IN VITRO CHROMOSOMAL ABERRATIONS, Test System: CHL CELLS, Metabolic Activation: NONE
[3] = End Point: IN VITRO CHROMOSOMAL ABERRATIONS, Test System: CHO CELLS, Metabolic Activation: NONE
[4] = End Point: IN VITRO CHROMOSOMAL ABERRATIONS, Test System: CHO CELLS, Metabolic Activation: RAT, LIVER, S-9, AROCLOR 1254
[5] = End Point: In vitro chromosomal aberrations, Test System: Chinese hamster lung (CHL/IU) cells, Metabolic Activation: None
[6] = Test System: AMES SALMONELLA TYPHIMURIUM, Strain/Indicator: TA98, Metabolic Activation: NONE, Method: STANDARD PLATE
[7] = Test System: AMES SALMONELLA TYPHIMURIUM, Strain/Indicator: TA100, Metabolic Activation: NONE, Method: STANDARD PLATE

O=[N+]([O-])c1ccc2c3c(cccc13)CC2
mutagenic call (Test System: E. COLI, Strain/Indicator: WP2 UVRA, Metabolic Activation: HAMSTER, LIVER, S-9, AROCLOR 1254, Method: STANDARD PLATE): inactive; negative and active; positive | mutagenic call (Test System: E. COLI, Strain/Indicator: WP2 UVRA, Metabolic Activation: HAMSTER, LIVER, S-9, Method: STANDARD PLATE): inactive; negative and active; positive | mutagenic call (Test System: E. COLI, Strain/Indicator: WP2 UVRA, Metabolic Activation: MOUSE, LIVER, S-9, AROCLOR 1254, Method: STANDARD PLATE): inactive; negative and active; positive | mutagenic call (Test System: E. COLI, Strain/Indicator: WP2 UVRA, Metabolic Activation: MOUSE, LIVER, S-9, Method: STANDARD PLATE): inactive; negative and active; positive | mutagenic call (Test System: E. COLI, Strain/Indicator: WP2 UVRA, Metabolic Activation: RAT, LIVER, S-9, AROCLOR 1254, Method: STANDARD PLATE): inactive; negative and active; positive

S=C(NC1CCCCC1)NC1CCCCC1
mutagenic call [1]: active; positive [study A] and inactive; negative [study B]

c1ccc2c(c1)ccc1ncccc12
mutagenic call [2]: active; positive (structural and ploidy changes) (2×); also recorded: inactive; negative; authors report equivocal results for ploidy changes at 0.025 and 0.03

Nc1ccc(N)cc1
mutagenic call (End Point: In vitro micronucleus, Test System: Human lymphocytes, Metabolic Activation: None): inactive; negative and active; positive | mutagenic call (Test System: AMES SALMONELLA TYPHIMURIUM, Strain/Indicator: TA98, Metabolic Activation: RAT, LIVER, S-9, AROCLOR 1254, Method: PREINCUBATION): active; positive [study A] and inactive; negative [study B] | mutagenic call (Test System: AMES SALMONELLA TYPHIMURIUM, Strain/Indicator: TA98, Metabolic Activation: RAT, LIVER, S-9, AROCLOR 1254, Method: STANDARD PLATE): active; positive [study A] and inactive; negative [study B] | mutagenic call (Test System: E.COLI, Strain/Indicator: WP2UVRA, Metabolic Activation: NONE, Method: PREINCUBATION): inactive; negative and active; positive

C1O[C@@H]1[C@@H]1CO1
mutagenic call (Test System: E. COLI, Strain/Indicator: WP2 UVRA, Metabolic Activation: HAMSTER, LIVER, S-9, AROCLOR 1254, Method: PREINCUBATION): active; positive and inactive; negative | mutagenic call (Test System: E. COLI, Strain/Indicator: WP2 UVRA, Metabolic Activation: MOUSE, LIVER, S-9, AROCLOR 1254, Method: PREINCUBATION): active; positive and inactive; negative | mutagenic call (Test System: E. COLI, Strain/Indicator: WP2 UVRA, Metabolic Activation: MOUSE, LIVER, S-9, Method: PREINCUBATION): active; positive and inactive; negative | mutagenic call (Test System: E. COLI, Strain/Indicator: WP2 UVRA, Metabolic Activation: NONE, Method: PREINCUBATION): active; positive and inactive; negative

Cc1ccc(C(C)C)cc1O
mutagenic call (End Point: In vivo chromosomal aberrations, Test System: Bone marrow cells, Species: Rat, Strain/Sex: Sprague-Dawley/Male, Route: Intraperitoneal): active; positive (structural changes; numerical changes not dose-related); also recorded: active; positive (structural changes); also recorded: active; positive (structural and numerical changes)

O=[N+]([O-])c1cccc(Cl)c1F
mutagenic call [2]: active; positive (structural and ploidy changes); also recorded: active; positive (structural changes); authors report equivocal results for ploidy

O=NO
mutagenic call (Test System: E. coli, Strain/Indicator: WP2 uvrA/pKM101, Metabolic Activation: None, Method: Preincubation): active; positive. addition of ascorbic acid increased the effect; also recorded: active; positive (2×)

Oc1ccc(Cl)cc1Cl
mutagenic call [3]: inactive; negative [study A] and active; positive [study B]

CC(C)(Oc1ccc(C2CCCc3ccccc32)cc1)C(=O)O (centres undefined)
mutagenic call (End Point: IN VITRO CHROMOSOMAL ABERRATIONS, Test System: RAT HEPATOCYTES, Metabolic Activation: NONE): active; positive; at highest concentration; also recorded: active; positive | mutagenic call (End Point: IN VITRO MICRONUCLEUS, Test System: RAT HEPATOCYTES, Metabolic Activation: NONE): inactive; negative and active; positive

CN(C)N=O
mutagenic call [4]: inactive; negative (2×) and active; positive | mutagenic call (Test System: AMES SALMONELLA TYPHIMURIUM, Strain/Indicator: TA100, Metabolic Activation: MOUSE, LIVER, S-9, Method: PREINCUBATION): inactive; negative [study A] and active; positive [study B] | mutagenic call (Test System: AMES SALMONELLA TYPHIMURIUM, Strain/Indicator: TA100, Metabolic Activation: RAT, LIVER, S-9, Method: PREINCUBATION): active; positive [study A] and inactive; negative [study B] and inactive; negative [study C]

C=C1C/C(=C/C)C(=O)O[C@@H]2CCN3CC=C(COC(=O)[C@@]1(O)CO)[C@H]23
mutagenic call (Test System: UDS MOUSE HEPATOCYTES, Strain/Indicator: THY INCORP, Metabolic Activation: NONE, Method: IN VIVO): active; positive [study A] and inactive; negative [study B] and active; positive [study B]

Nc1ccc(I)cc1Cl
mutagenic call [5]: active; positive (structural changes); also recorded: active; positive (ploidy). toxic at 0.12 mg/ml; also recorded: inactive; negative. weak response is not dose related; toxic at 0.16 mg/ml | mutagenic call (Test System: Ames Salmonella typhimurium, Strain/Indicator: TA100, Metabolic Activation: Rat, Liver, S9, Sodium phenobarbital and 5,6-benzoflavone (10%), Method: Preincubation): inactive; negative (2×) and inactive; positive (retest was negative) | mutagenic call (Test System: Ames Salmonella typhimurium, Strain/Indicator: TA100, Metabolic Activation: Rat, Liver, S9, Sodium phenobarbital and 5,6-benzoflavone (30%), Method: Preincubation): active; positive (2×) and inactive; negative

Nc1ccc(Cc2ccc(N)cc2)cc1
mutagenic call [3]: inactive; negative and active; positive; weak response | mutagenic call [4]: active; positive; weak response (2×) and active; positive | mutagenic call (End Point: IN VIVO MICRONUCLEUS, Test System: HEPATOCYTES, Species: RAT, Strain/Sex: FISHER 344 OR SD/MALE, Route: ORAL OR IP): inactive; negative; also recorded: inactive; negative; significant increase at 72 hr harvest

CC(Cl)CCl (centres undefined)
mutagenic call (End Point: IN VITRO CHROMOSOMAL ABERRATIONS, Test System: CHINESE HAMSTER OVARY CELLS, Metabolic Activation: NONE): inactive; negative; also recorded: active; positive; precipitation occurred at 1580 ug/ml

CCC1CCC(CCC(=O)[O-])C1.CCC1CCC(CCC(=O)[O-])CC1.[Cu+2] (centres undefined)
mutagenic call [1]: active; positive. reevaluation of results: positive [study A]; also recorded: inactive; negative. reevaluation of results: positive [study B]

Cc1ccccc1N=Nc1ccc(N=Nc2c(O)ccc3ccccc23)c(C)c1
mutagenic call (Test System: AMES SALMONELLA TYPHIMURIUM, Strain/Indicator: TA98, Metabolic Activation: RAT, LIVER, S-9, PCB, Method: PREINCUBATION): inactive; negative and active; positive | mutagenic call (Test System: AMES SALMONELLA TYPHIMURIUM, Strain/Indicator: TA100, Metabolic Activation: RAT, LIVER, S-9, PCB, Method: PREINCUBATION): inactive; negative and active; positive

Nc1cc2c3ccccc3ccc2c2ccccc12
mutagenic call [6]: inactive; negative [study A] and active; positive [study B] | mutagenic call (Test System: AMES SALMONELLA TYPHIMURIUM, Strain/Indicator: TA98, Metabolic Activation: RAT, LIVER, CYTOSOL, Method: STANDARD PLATE): active; positive and inactive; negative

[O]=[V](=[O])[OH]
mutagenic call (Test System: CHINESE HAMSTER V-79, Strain/Indicator: V-79/6-THIOGUANINE, Metabolic Activation: NONE): active; positive [study A] and inactive; negative [study A] and inactive; negative [study B]

ClCCl
mutagenic call [7]: active; positive [study A] and inactive; negative [study B]

C[C@]12CC[C@@H]3c4ccc(O)cc4CC[C@H]3[C@@H]1CC[C@@H]2O
mutagenic call (End Point: IN VITRO CHROMOSOMAL ABERRATIONS, Test System: HUMAN PERIPHERAL LYMPHOCYTES, Metabolic Activation: NONE): active; positive [study A] and inactive; negative [study B] and inactive; negative [study C] | mutagenic call (End Point: IN VITRO MICRONUCLEUS, Test System: MCF-7 (HUMAN MAMMARY CARCINOMA), Metabolic Activation: NONE): active; positive and inactive; negative

COc1cccc2c1ccc1c(C(=O)O)cc3c(c12)OCO3
mutagenic call [6]: inactive; negative [study A] and inactive; negative [study B] and active; positive [study C] | mutagenic call [7]: inactive; negative [study A] and inactive; negative [study B] and active; positive [study C] | mutagenic call (Test System: AMES SALMONELLA TYPHIMURIUM, Strain/Indicator: TA1537, Metabolic Activation: NONE, Method: STANDARD PLATE): inactive; negative [study A] and active; positive [study B]

COc1cc(N=Nc2ncc([N+](=O)[O-])s2)c(NC(C)=O)cc1N(CCOC(=O)OCC(C)C)CCOC(=O)OCC(C)C
mutagenic call [2]: active; positive (ploidy changes); precipitation occurred at all doses except the lowest; also recorded: active; positive (ploidy changes)

N#CC(Cl)Cl
mutagenic call (Test System: AMES SALMONELLA TYPHIMURIUM, Strain/Indicator: TA98, Metabolic Activation: NONE, Method: PREINCUBATION): inactive; negative [study A] and active; positive [study B]

COC(=O)Nc1nc2ccc(C(=O)c3ccccc3)cc2[nH]1
mutagenic call (Test System: AMES SALMONELLA TYPHIMURIUM, Strain/Indicator: TA100, Metabolic Activation: RAT, LIVER, S-9, AROCLOR 1254, Method: STANDARD PLATE): inactive; negative and active; positive

ClCCBr
mutagenic call [2]: active; positive (structural changes) (2×) and inactive; negative

COc1cc(COC(=O)CCCCCCC(C)C)ccc1O
mutagenic call [5]: inactive; negative (2×) and active; positive only at 194 ug/ml
